# Assay results as given in PubChem BioAssay AID686978 (National Center for Advancing Translational Sciences (NCATS), 2013).
# In all, about 420,000 compounds went through this assay and about 64,000 (15%) were called active. This list was built around the results that the source calls inconclusive (neither active nor inactive); the mix of calls is not that of the screen. Calls come from the whole dose curve; as a rule, active = well fitted inhibition curve with a large enough effect; inconclusive = small, poorly fitted or top-dose-only effect; inactive = flat fitted curve, though single readings scatter. No potency is given beside an inconclusive call; the fits are too rough.
# Assay: qHTS for Inhibitors of human tyrosyl-DNA phosphodiesterase 1 (TDP1): qHTS in cells in absence of CPT; note: nearly all actives have a fitted effect of over 55% in size
# Settings: DT40 Tdp1-/- hTDP1 cells, no CPT, ATP luminescence, 48 h; activity change, negative = growth inhibition: at 46.2 µM (top of the series)
# Summary of the method: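 Growth of hTDP1-complemented DT40 Tdp1-knockout cells is measured by ATP luminescence after at least 48 hr compound exposure at 37 °C, with DMSO substituting for the 20 nM CPT used in the parallel screen.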
# % is set by controls: 0 for no effect and ±100 for the full control effect; potency is the fitted concentration of half-maximal effect; tags give direction and shape of the fitted curve.
SMILES,Potency,"activity change, negative = growth inhibition"
COc1ccc(-n2nc(C(=O)N(C)c3cc(Cl)ccc3OC)c3c4ccccc4n(C)c3c2=O)cc1,"inconclusive [inhibitor, single point]",–
O=C(CN1CCCC1)Nc1ccc(F)cc1,inactive,–
COc1ccc(Cc2noc(-c3ccccc3)n2)cc1OC,"inconclusive [inhibitor, single point]",–
O=C(CCCCCn1c(=S)[nH]c2ccc(N3CCOCC3)cc2c1=O)NCc1ccccc1Cl,–,inconclusive: -34.8% [inhibitor]
COc1ccc(-c2ccc3c(c2)S(=O)(=O)c2cccc(C(=O)N4CCN(c5c(Cl)cncc5Cl)CC4)c2C3=O)cc1OC,active: 5.17 µM,–
CNC(C)C#Cc1c(-c2cc(OC)c(OC)c(OC)c2)noc1C (configuration not stated),active: 15.8 µM,–
Cc1ccc(NC(=O)COC(=O)C2CC3CCCC(C2)C3=O)c([N+](=O)[O-])c1 (configuration not stated),inactive,–
CCOc1ccc(C2C(C(=O)c3cccs3)=C(O)C(=O)N2Cc2cccnc2)cc1 (configuration not stated),–,inconclusive: -33% [inhibitor]
Cc1cccc(-c2noc(CN(C(=O)CCc3ccccc3)C(C)C)n2)c1,"inconclusive [inhibitor, partial curve]",–
O=C(NCc1ccco1)c1ccc2c(c1)N(Cc1ccccc1)C(=O)CS2=O (configuration not stated),inactive,–
COc1ccc(Cn2c(CO)cnc2SCc2ccc(F)cc2)cc1,active: 18.4 µM,–
C=CCOC(=O)C(C#N)c1nc2ccccc2nc1N1CCN(Cc2ccc3c(c2)OCO3)CC1 (configuration not stated),"inconclusive [inhibitor, single point]",–
COc1ccc2[nH]c(=O)c(CN(C(=O)C3CCCO3)c3ccc(C)c(C)c3)cc2c1 (configuration not stated),"inconclusive [inhibitor, partial curve]",–
CC(=O)NC(=S)Nc1ccccc1N1CCCCC1,inactive,–
O=C(CSc1ccc(F)cc1)NCCc1ccc(Cl)cc1,"inconclusive [inhibitor, single point]",–
CCOC(=O)CN1C(=O)C(Sc2n[nH]c(-c3ccc(O)cc3)n2)CCc2ccccc21 (configuration not stated),"inconclusive [inhibitor, single point]",–
CC(=O)N(C1=C(N)C(=O)c2ccccc2C1=O)C(C)C,"inconclusive [inhibitor, single point]",–
O=C(/C=C/c1ccccc1)OCCN=C1NS(=O)(=O)c2ccccc21,"inconclusive [inhibitor, single point]",–
COCCNC(=O)C1(C)CCN(C(=O)c2cc(C(C)(C)C)nn2C)C1 (configuration not stated),inactive,–
N#CC1=C2SCN(C3CCCCC3)CN2C(=O)CC1c1c(F)cccc1Cl (configuration not stated),"inconclusive [inhibitor, single point]",–
Cc1nnc(NC(=O)CN2CCN(Cc3ccccc3)CC2)s1,–,inconclusive: -35.7% [inhibitor]
CC(C)(C)N1CC2([N+](=O)[O-])CN(C(C)(C)C)CC([N+](=O)[O-])(C1)C2,"inconclusive [inhibitor, partial curve]",–
CCOc1ccccc1NC(=O)C1=C(C)Nc2ncnn2C1c1ccc(NC(C)=O)cc1 (configuration not stated),inactive,–

SMILES,Potency,"activity change, negative = growth inhibition"
Cc1sc2nc(SCCN(C)C)n(-c3ccccc3)c(=O)c2c1-c1ccc(F)cc1,active: 25.9 µM,–
Cc1ccc(NC(=O)CC2Nc3cc(C)c(C)cc3NC2=O)c(C)c1 (configuration not stated),"inconclusive [inhibitor, single point]",–
Cc1nn(CCCC(=O)NCc2ccc(OC(C)C)cc2)c(=O)c2c1sc1ccccc12,"inconclusive [inhibitor, single point]",–
COc1ccccc1CCn1c(N)c(C#N)c2nc3ccccc3nc21,"inconclusive [inhibitor, single point]",–
C=CCS(=O)(=O)N1CCCC(Cc2ccccc2C)(C(=O)OCC)C1 (configuration not stated),"inconclusive [inhibitor, single point]",–
CCN1CCN(c2nc3ccccc3nc2C(C#N)C(=O)OC2CCCCC2)CC1 (configuration not stated),active: 23.1 µM,–
OC(c1ccccc1)(c1ccccc1)C1CCN(CCCOc2ccccc2Cl)CC1,active: 16.4 µM,–
Cc1cccc(CCNC(=O)c2ccc(CSCc3cccc(Cl)c3)o2)c1,"inconclusive [inhibitor, single point]",–
COc1ccc(NC(=S)N2CCC(NC(=O)C3CCCCC3)CC2)cc1,"inconclusive [inhibitor, partial curve, poor fit]",–
COc1ccc(C2CC(c3ccccc3)=NN2C(=O)CN2N=NC3C(=O)N(c4cccc(F)c4)C(=O)C32)cc1 (configuration not stated),"inconclusive [inhibitor, partial curve]",–
O=C(O)CCCCN1C(=O)/C(=C\c2ccc(OCc3ccccc3)c(OCc3ccccc3)c2)SC1=S,"inconclusive [inhibitor, single point]",–
C(=N\c1nccs1)/Nc1nccs1,inactive,–
O=[N+]([O-])c1cccc(/C=N/Nc2nc(N3CCCCC3)nc(N3CCCCC3)n2)c1,"inconclusive [inhibitor, single point]",–
Cc1ccc(-c2cc(-c3c(C)nn(C)c(=O)c3N)[nH]n2)cc1,active: 9.2 µM,–
O=C(CN1CCN(Cc2ccc(Cl)cc2)CC1)N/N=C/c1cccc(F)c1,"inconclusive [inhibitor, single point]",–
O=c1cc(CCl)nc2sc3ccccc3n12,"inconclusive [inhibitor, single point]",–
CCc1nc(Nc2ccc(NC(C)=O)cc2)c2oc3ccccc3c2n1,inactive,–
COc1ccc(Oc2c(Cl)cnn(-c3ccc(F)cc3)c2=O)cc1,"inconclusive [inhibitor, single point]",–
Cc1nn(CC(=O)N2CCN(c3cccc(C(F)(F)F)c3)CC2)c(=O)c2cc3sccc3n12,inactive,–
COc1ccc(-c2noc(N3CCC(C(=O)N(C)c4ccccc4)CC3)n2)cc1,active: 29.1 µM,–
CN(Cc1ccccc1)C(=O)c1cccc(NC(=O)Cc2cccc(NC(=O)C3CCN(C(=O)C4CCC4)CC3)c2)c1,"inconclusive [inhibitor, single point]",–
Clc1ccc2nc3c4ccccc4cnn3c2c1,"inconclusive [inhibitor, single point]",–
CCn1c2ccc(Cl)cc2c2nc3ccccc3nc21,"inconclusive [inhibitor, single point]",–

SMILES,Potency,"activity change, negative = growth inhibition"
COc1ccccc1Nc1nc(-c2sc(N)nc2C)cs1,"inconclusive [inhibitor, partial curve, poor fit]",–
O=C(c1ccco1)N1CCN(Cc2ccc(F)cc2)CC1,inactive,–
CCOc1nc(NCCN2CCOCC2)nc(Nc2ccc(C)cc2)n1,inactive,–
COc1ccccc1-n1c(=S)[nH]c2c(sc(=S)n2-c2ccc(C)cc2C)c1=O,"inconclusive [inhibitor, partial curve, poor fit]",–
COC(=O)c1cc[n+](CC(=O)c2ccccc2)cc1,inactive,–
CCn1ccc2c(OCC(=O)NCc3ccccc3)cccc2c1=O,"inconclusive [inhibitor, single point]",–
Cc1cccc(NC(=S)Nc2ccc(N3CCOCC3)cc2)c1C,"inconclusive [inhibitor, single point]",–
O=C(C(Cc1ccccc1)n1cccc1)N1CCc2ccccc21 (configuration not stated),"inconclusive [inhibitor, single point]",–
C=C1CCC[C@]2(C)C[C@H]3OC(=O)C(CN4CCOCC4)[C@H]3C[C@@H]12 (some centres not stated),"inconclusive [inhibitor, single point]",–
C/C=C/c1ccc(OCC(O)CNCCc2ccc(OC)cc2)c(OC)c1 (configuration not stated),"inconclusive [inhibitor, single point]",–
CCOC(=O)C1(Cc2cccc(Cl)c2)CCCN(C(=O)C2CC2)C1 (configuration not stated),"inconclusive [inhibitor, single point]",–
COc1ccc(NS(=O)(=O)c2ccc(N3CCCC3)c(NC(=S)Nc3cccc(C)c3C)c2)cc1,active: 9.2 µM,–
OCC1(CCc2ccccc2)CCCN(CCCc2ccccc2)C1 (configuration not stated),"inconclusive [inhibitor, single point]",–
Cc1cccc(C2Nc3ccccc3C(=O)N2CCc2ccccc2)n1 (configuration not stated),"inconclusive [inhibitor, partial curve]",–
O=C(Cc1ccc(NC(=O)C2CCCN(C(=O)C3CC3)C2)cc1)Nc1cccc(C(=O)N2CCCCC2)c1 (configuration not stated),inactive,–
CSc1ccc(C(=O)C2CCCN(C(=O)c3cc(C)n(C)n3)C2)cc1 (configuration not stated),"inconclusive [inhibitor, single point]",–
CCCCC(NC(=O)CCc1c(C)c2cc3c4c(oc3c(C)c2oc1=O)CCCC4)C(=O)O (configuration not stated),inactive,–
Cc1ccc(S(=O)(=O)N2CCN(C(=O)CCOc3cc(C)ccc3C)CC2)cc1,"inconclusive [inhibitor, single point]",–
CC(O)COCC1OC2OC3C(COCC(C)O)OC(OC4C(COCC(C)O)OC(OC5C(COCC(C)O)OC(OC6C(COCC(C)O)OC(OC7C(COCC(C)O)OC(OC8C(COCC(C)O)OC(OC1C(OCC(C)O)C2OCC(C)O)C(OCC(C)O)C8OCC(C)O)C(OCC(C)O)C7OCC(C)O)C(OCC(C)O)C6OCC(C)O)C(OCC(C)O)C5OCC(C)O)C(OCC(C)O)C4OCC(C)O)C(OCC(C)O)C3OCC(C)O (configuration not stated),inactive,–
Cc1ccc(CS(=O)(=O)Cc2ccc(C(=O)NC3CC3)o2)cc1,"inconclusive [inhibitor, partial curve]",–
CCOC(=O)C1(CCOc2ccccc2)CCN(Cc2cccn2-c2cccnc2)CC1,"inconclusive [inhibitor, single point]",–
